Screen size: about 340,000 compounds; about 6,900 (2%) were called active. Rule as the data show it: active = inhibition above about 30%; inactive = below that, where a call was filed. The entries are a selection whose mix differs from that of the whole data set. Where no call is shown, the source filed none.
Molecular target: D(2) dopamine receptor (Homo sapiens) (UniProt P14416)
Experiment: HTS Assay for Allosteric Antagonists of the Human D2 Dopamine Receptor: Primary Screen for Antagonists; also: 0% is about no effect
Details: HEK293 TREx D2 cells, calcium flux, dopamine EC80; at 10 µM; stronger effect = higher value
Method in brief: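 Antagonism is scored as inhibition of an EC80 dopamine-evoked calcium signal in a force-coupled, tetracycline-inducible HEK293 T-REx D2 line, with compound present 180 s before agonist.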

UniProt P14416, sequence (P14416 whole entry, looked up): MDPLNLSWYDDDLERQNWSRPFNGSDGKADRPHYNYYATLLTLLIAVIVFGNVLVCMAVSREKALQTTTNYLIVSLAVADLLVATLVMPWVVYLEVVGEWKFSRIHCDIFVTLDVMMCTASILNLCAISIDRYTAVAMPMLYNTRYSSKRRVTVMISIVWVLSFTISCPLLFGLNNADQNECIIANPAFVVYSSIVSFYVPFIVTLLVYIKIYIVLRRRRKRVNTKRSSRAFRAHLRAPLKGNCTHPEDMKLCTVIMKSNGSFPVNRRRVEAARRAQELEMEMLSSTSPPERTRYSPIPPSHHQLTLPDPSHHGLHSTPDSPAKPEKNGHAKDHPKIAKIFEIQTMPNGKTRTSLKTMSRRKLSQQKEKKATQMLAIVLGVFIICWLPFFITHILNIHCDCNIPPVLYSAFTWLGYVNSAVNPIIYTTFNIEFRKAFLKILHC

Row | SMILES | inhibition
1 | CC(C)CN(CCNC(=O)c1cc(-c2cccs2)nc2ccccc12)CC(C)C | 6.91%
2 | CCOc1ccccc1CNC(=O)c1cnc2sc(N(CC)CC)nn2c1=O | 7.02%
3 | CCOC(=O)c1cc(-c2ccccc2)n(CCCC(=O)Nc2ccccc2C)c1C | -13.1%
4 | COc1ccc(-n2ccnc(NCc3ccccc3Cl)c2=O)cc1OC | 4.77%
5 | COc1ccc(C(=O)c2oc3ccccc3c2NC(=O)c2cccc(OC)c2)cc1 | -1.56%
6 | CCOc1cccc(CC(=O)N2CCc3c([nH]c4ccccc34)C2c2ccc(SC)cc2)c1OCC (configuration not stated) | -5.36%
7 | CCOc1ccc(NC(=O)Cn2nc(Cc3ccncc3)c3ccccc3c2=O)cc1 | 2.26%
8 | CCCN(CCC)C(=O)c1nn(C)c2c1CSc1ccc(C)cc1-2 | -12.5%
9 | COc1cccc(CN2CCN(c3ncccn3)CC2)c1 | active: 95%
10 | CC(C)Cn1c(=O)c2ccccc2n2c(CCC(=O)Nc3ccc(F)cc3)nnc12 | 0.623%
11 | COc1ccccc1/C=C/c1nc(C#N)c(NCC(C)C)o1 | -14.4%
12 | Cn1c(=O)c2c(c3ccccc31)OC(=O)CC2c1cccc(Cl)c1 (configuration not stated) | -4.46%
13 | Cc1ccc(-c2nc(CCNC(=O)C(=O)Nc3c(C)cccc3C)cs2)cc1 | 16.2%
14 | CCOCCn1cnc2sc(C(=O)Nc3ccccc3C(=O)OC)c(C)c2c1=O | 3.05%
15 | Cc1ccc(OCCCCN2CCc3ccccc3C2)cc1 | active: 73.4%
16 | O=C(Cn1ccc2cc(S(=O)(=O)N3CCCCC3)ccc21)NCc1ccccc1Cl | -7.02%
17 | CC(C)c1nnc(N2C(=O)C(O)=C(C(=O)c3cccs3)C2c2ccccc2)s1 (configuration not stated) | active: 47.9%
18 | COc1ccc(C)cc1NC(=O)c1oc2ccc(S(=O)(=O)N3CCC4(CC3)OCCO4)cc2c1C | -14.2%
19 | CCOC(=O)c1ccc(N2CCN(c3cc(C)ccc3C)CC2)c(NC(=O)Nc2ccc(Cl)cc2)c1 | 0.709%
20 | Cc1ccc(NC(=S)N(CCN2CCCCC2)Cc2ccco2)cc1C | active: 50.8%
21 | CCOc1ccc(C2C(C(=O)Nc3ccccc3C)=C(C)Nc3nnnn32)cc1 (configuration not stated) | -8.25%
22 | CC(=O)Nc1nnc2n1CCS2 | 4.05%
23 | Cc1ccc(OCCCNCCO)c(Br)c1 | active: 39.4%
24 | CCn1c(CN2CCOCC2)nc2cc(NC(=O)c3cccc([N+](=O)[O-])c3)ccc21 | -1.16%
25 | Cn1c(=O)c2c(-c3ccccc3)n(CCCO)cc2n(C)c1=O | 0.42%

Row | SMILES | inhibition
26 | CCCc1nnc(NC(=O)Nc2ccccc2Cl)s1 | -26.5%
27 | CCOc1ccc(OCC)c(NC(=O)C2CCCN(S(=O)(=O)c3cc(Br)cc4c3N(C(=O)CC)CC4)C2)c1 (configuration not stated) | -4.81%
28 | Cc1nc2nc(C)c(NS(=O)(=O)c3ccc(CC(C)C)cc3)c(=O)n2[nH]1 | 5.28%
29 | Cc1nn(C(=O)c2c(F)cccc2F)c(C)c1S(=O)(=O)N1CCCCCC1 | -9.25%
30 | COc1cc(NC(=O)N2CCSc3ccccc32)cc(OC)c1OC | -1.68%
31 | CC(C)Oc1ccc(CNC(=O)c2ccc3c(c2)nc2n3CCOC2)cc1 | -11.1%
32 | CCN(c1ccccc1C)S(=O)(=O)c1nnc(NC(=O)c2ccccc2C)s1 | 15.8%
33 | Cc1ccccc1CN1CCN(CCCc2ccccc2)C(CCO)C1 (configuration not stated) | active: 38.3%
34 | COc1ccccc1NC(=O)Nc1cc(F)ccc1F | active: 32%
35 | COc1ccc(NC(=O)Cc2c(C(=O)O)[nH]c3ccccc23)cc1OC | -6.91%
36 | COc1ccc(CNC(=O)Cc2coc3ccc(C)cc23)cc1 | -1.59%
37 | Cc1ccc(NC(=O)c2oc3ccc(S(=O)(=O)N4CCOCC4)cc3c2C)c(C)c1 | 2.03%
38 | O=C(CCS(=O)(=O)c1nc(-c2ccc3c(c2)OCO3)cc(C(F)(F)F)n1)Nc1ccc(Br)cc1 | 0.0929%
39 | O=C1CC(c2c(F)cccc2Cl)c2c(ccc3ccccc23)N1 (configuration not stated) | -8.12%
40 | COc1cc(C2c3c(oc4ccc(F)cc4c3=O)C(=O)N2Cc2ccc3c(c2)OCO3)ccc1O (configuration not stated) | -7.32%
41 | COc1ccc(C(=O)Nc2ccc3nc4c(c(Nc5ccccc5OC)c3c2)CCCC4)c(OC)c1 | 26.4%
42 | COC(=O)c1cccnc1-n1c(=O)c2cccnc2n(CC(=O)Nc2cccc(C)c2)c1=O | -2.93%
43 | COc1ccc(N2CCN(c3nc4ccc(C(=O)c5ccccc5)cc4n4cnnc34)CC2)cc1 | -3.86%
44 | CN(C)c1ccc(S(=O)(=O)NCC(=O)NCCC2=CCCCC2)cc1[N+](=O)[O-] | active: 31.4%
45 | Nc1ccc(C(=O)N/N=C/c2cccc(Oc3ccccc3)c2)cc1 | active: 31.2%
46 | CCOc1ccc(CN2CCN(Cc3ccc4c(c3)c3ccccc3n4CC)CC2)cc1 | 6.52%
47 | O=C(CCn1c(=O)c2ccccc2n(Cc2cccc(F)c2)c1=O)NCc1ccc2c(c1)OCO2 | -9.53%
48 | Cc1cc(C)cc(N2C(=O)N(Cc3cc(=O)n4ccccc4n3)c3ccccc3S2(=O)=O)c1 | 17.3%
49 | Cc1ccc(-c2c(C(=O)N3CCN(c4ccc(F)cc4)CC3)oc(=O)c3ccccc23)cc1 | 4.06%
50 | CCc1nn(CC(=O)NCc2ccc(C)cc2)c(=O)c2cc3occc3n12 | 7.19%

Row | SMILES | inhibition
51 | Cc1ccccc1OCCn1cc(C(=O)c2ccco2)c2ccccc21 | -7.76%
52 | CC(C)COC(=O)n1c(SCC(=O)N(C)C)nc2ccccc21 | active: 31.4%
53 | COc1ccc(OC)c(C2CC(=O)c3c([nH]c(C(=O)OCc4ccc(C)cc4)c3C)C2)c1 (configuration not stated) | 26.4%
54 | Clc1ccc(-c2noc3ncnc(NC4CCCCC4)c23)cc1 | 14.3%
55 | Cc1ccc(CCNC(=O)c2cnc3c(-c4ccc(F)cc4)c(C)nn3c2C)cc1 | 1.61%
56 | O=C(Nc1nc2c(F)cccc2s1)c1ccc([N+](=O)[O-])o1 | active: 32.8%
57 | CCOC(=O)N1CCC(NC(=O)c2cnn(-c3ccc(OC)cc3)c2C2CCN(C(=O)OC(C)(C)C)CC2)CC1 | 5.86%
58 | Cc1ccccc1NC(=O)COc1ccc2oc3c(c2c1)CCCC3 | 7.3%
59 | O=C(CN1C(=O)COc2ccc(S(=O)(=O)N3CCCCCC3)cc21)N1CCN(c2ccc(F)cc2)CC1 | 3.22%
60 | Cn1nccc1/C=C(/C#N)S(=O)(=O)c1ccccc1 | active: 30.5%
61 | COc1ccc(-c2cc3nc(C)c(CCC(=O)NCCc4ccc(Cl)cc4)c(C)n3n2)c(OC)c1 | -3.04%
62 | Cc1ccc(Cn2c(=O)c3cccnc3n(Cc3ccc(C)cc3)c2=O)cc1 | -17.1%
63 | Cc1cn(C)c(CC(=O)Nc2cccc(C#N)c2)c1C(=O)O | 15.8%
64 | Cc1ccc(CSc2ncc(Cl)c(C(=O)Oc3ccccc3F)n2)cc1 | -10.8%
65 | Cc1ccc(Cn2c(=O)n(-c3cccc(C(F)(F)F)c3)c(=O)c3c(C)c(C)sc32)c(C)c1 | 17.4%
66 | COc1cccc(Cn2nnc(C(=O)NCc3ccc(Cl)cc3Cl)c2N)c1 | 6.83%
67 | CCc1cccc(NC(=O)Cn2c(=O)n3nc(-c4cccc(F)c4)nc3c3ccccc32)c1 | -10.8%
68 | COc1ccc(CNC(=O)N2CCc3ccccc3C2)cc1 | active: 34.1%
69 | Cc1ccccc1C(=O)Nc1sc2c(c1C(=O)N1CCC(C)CC1)CCC(C)C2 (configuration not stated) | -17.5%
70 | COc1ccc(NC(=O)c2nnn(CC(=O)Nc3ccc(C)c(C)c3)c2N)cc1OC | 4.38%
71 | COc1cc(CN2CCN(Cc3ccc(C)cc3)CC2)c([N+](=O)[O-])cc1OC | active: 88.1%
72 | CCOc1cc2[nH]c(=O)n(CCCCC(=O)N3CCN(c4ccccc4OC)CC3)c(=O)c2cc1OCC | -18.4%
73 | COc1ccc2c(c1)c1c(c(=O)n(-c3ccc(OC)c(OC)c3)c(=O)n1Cc1ccc(F)cc1)n2C | 0.225%
74 | Cc1cn2c(=O)cc(COC(=O)c3ccc(NC(=O)c4ccccc4C)cc3)nc2s1 | 4.61%
75 | Cc1ccccc1CS(=O)(=O)Cc1ccc(C(=O)NCCc2ccc(Cl)cc2)o1 | -4.82%

Row | SMILES | inhibition
76 | CCOC(=O)C1CCCN(c2c(C(=O)c3ccccc3)cnc3ccc(F)cc23)C1 (configuration not stated) | 16.5%
77 | COc1ccc(-c2c(C)c3cc(OC(=O)N4CCOCC4)ccc3oc2=O)cc1OC | -5%
78 | CC(CNC(=O)c1ccc(Cn2c(=O)c3cccn3c3cccnc32)cc1)c1ccccc1 (configuration not stated) | -1.36%
79 | COc1cc(CNC(=O)c2ccc3nc(Cc4ccccc4)oc3c2)cc(OC)c1OC | -24.4%
80 | COc1cccc(C(=O)CC2(O)C(=O)N(Cc3ccccc3)c3ccccc32)c1 (configuration not stated) | 4.75%
81 | O=S(=O)(c1ccc(Br)s1)N1CCN(CCOc2ccccc2)CC1 | active: 53%
82 | COc1ccc(CNc2ncnc3onc(-c4ccc(F)cc4)c23)cc1 | -4.55%
83 | CCOc1ccccc1NC(=O)N1CCc2c(sc(C)c2CC)C1c1ccccc1 (configuration not stated) | -6.89%
84 | CCCCNC(=O)CCCn1c(=O)c2ccccc2n(CC(=O)Nc2ccccc2OCC)c1=O | -14%
85 | Cc1ccccc1NS(=O)(=O)c1ccc(C2CNC(=O)C2)cc1 (configuration not stated) | active: 65.6%
86 | CCCc1cnc2c(c1SCC(=O)Nc1ccc(C)c(Cl)c1)c(=O)n(C)c(=O)n2C | -25.2%
87 | COc1cc(/C=C(\C#N)c2nc3ccccc3[nH]2)ccc1OCc1cccc(C(F)(F)F)c1 | -18%
88 | O=[N+]([O-])c1ccccc1OCCCN1CCc2ccccc2C1 | active: 74.8%
89 | CCOc1ccccc1NC(=O)c1ccc(F)c(S(=O)(=O)NCc2ccc3c(c2)OCO3)c1 | 18%
90 | CCOC(=O)COc1ccc(Cl)cc1C1NC(=O)NC(C)=C1C(C)=O (configuration not stated) | active: 30.8%
91 | Cc1ccccc1C(=O)NC1(C(F)(F)F)C(=O)Nc2c1c(=O)[nH]c(=O)n2-c1ccc(F)cc1 (configuration not stated) | 6.41%
92 | COc1cccc(Cn2c(CNC(=O)c3cc([N+](=O)[O-])ccc3Cl)nc3cccnc32)c1 | -18.3%
93 | COc1ccc(OCc2nnc(SCC(=O)Nc3cccc(Cl)c3)o2)cc1 | active: 42.7%
94 | Cc1ccc(S(=O)(=O)N2CCOCC2)cc1C(=O)OC(C)C(=O)c1ccccc1 (configuration not stated) | active: 36.6%
95 | Cc1noc(/C=C/c2cccs2)c1S(=O)(=O)N1CCC(C(=O)NCc2ccccc2Cl)CC1 | 3.28%
96 | CN(C(=O)Cn1cc(S(=O)(=O)Cc2ccccc2Cl)c2ccccc21)c1ccccc1 | 12%
97 | COc1ccc(-c2nn3c(-c4ccccc4C)nnc3c3ccccc23)cc1 | -3.99%
